Laboratory results from article PMC4336329 (PLoS ONE, 2015).
The whole screen tested about 310,000 compounds, of which about 2,200 (0.71%) showed an effect of 50% or more. Effects have a minus sign here. Some of the results follow.

target: human ether-à-go-go-related gene (hERG) potassium channel (human, UniProt Q12809); assay: primary screen, population patch clamp on CHO cells stably expressing hERG
Sequence (Q12809 whole entry, looked up): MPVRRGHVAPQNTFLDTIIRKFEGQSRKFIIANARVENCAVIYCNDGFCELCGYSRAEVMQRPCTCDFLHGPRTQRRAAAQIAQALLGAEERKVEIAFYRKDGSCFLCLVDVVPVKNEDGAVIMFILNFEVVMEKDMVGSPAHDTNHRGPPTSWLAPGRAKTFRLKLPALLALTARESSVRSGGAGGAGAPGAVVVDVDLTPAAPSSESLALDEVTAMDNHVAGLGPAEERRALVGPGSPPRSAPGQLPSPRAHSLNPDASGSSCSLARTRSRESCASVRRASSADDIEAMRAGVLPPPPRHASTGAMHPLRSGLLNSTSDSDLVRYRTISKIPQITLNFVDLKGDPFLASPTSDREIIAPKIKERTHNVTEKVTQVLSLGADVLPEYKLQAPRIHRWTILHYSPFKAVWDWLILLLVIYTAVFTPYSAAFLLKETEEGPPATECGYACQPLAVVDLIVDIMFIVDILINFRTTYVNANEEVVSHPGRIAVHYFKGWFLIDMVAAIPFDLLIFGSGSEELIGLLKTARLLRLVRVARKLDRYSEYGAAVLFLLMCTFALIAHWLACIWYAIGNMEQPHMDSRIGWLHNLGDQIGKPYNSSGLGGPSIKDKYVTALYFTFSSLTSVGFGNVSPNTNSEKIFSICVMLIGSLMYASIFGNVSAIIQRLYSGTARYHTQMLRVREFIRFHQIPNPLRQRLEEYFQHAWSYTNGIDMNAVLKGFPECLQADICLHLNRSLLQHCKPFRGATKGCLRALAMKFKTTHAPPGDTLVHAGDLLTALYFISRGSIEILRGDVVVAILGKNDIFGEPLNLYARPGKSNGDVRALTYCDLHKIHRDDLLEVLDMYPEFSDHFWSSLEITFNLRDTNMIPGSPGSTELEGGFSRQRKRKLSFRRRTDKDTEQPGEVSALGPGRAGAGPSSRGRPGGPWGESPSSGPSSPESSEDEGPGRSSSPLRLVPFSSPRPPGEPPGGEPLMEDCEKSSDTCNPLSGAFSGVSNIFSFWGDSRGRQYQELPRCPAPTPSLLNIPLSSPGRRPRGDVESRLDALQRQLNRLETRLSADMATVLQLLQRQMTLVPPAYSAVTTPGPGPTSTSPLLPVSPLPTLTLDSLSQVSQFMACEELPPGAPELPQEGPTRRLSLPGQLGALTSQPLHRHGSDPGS

Compound | hERG current change (%, negative = inhibition) at 1uM
Nc1ccc[n+](CC(=O)c2ccccc2)c1.[Br-] | 3.78%
O=C(/C=C/c1ccccc1)NC1CCSC1=O (stereo not drawn) | 8.63%
O=C1C2C3C=CC(C3)C2C(=O)N1c1ccccc1 (stereo not drawn) | 16.7%
Cc1ccc(C(C(=O)NCc2ccccc2)N(Cc2cccs2)C(=O)c2ccc3c(c2)OCCO3)cc1 (stereo not drawn) | 5.38%
Cc1sc(NC(=O)c2ccco2)c(CN2CCC(C)CC2)c1C | 1.59%
CC(C)CC(NC=O)C(=O)O.COc1cc2c(cc1OC)C13CCN4CC5=CCOC6CC(=O)N2C1C6C5CC43 (stereo not drawn) | 11.7%
COc1cc2c3cc1Oc1cc(ccc1O)C[C@@H]1c4c(cc(OC)c(O)c4Oc4cccc(c4)C[C@@H]3N(C)CC2)CC[N+]1(C)C.Cl.O.[Cl-] | 13.1%
O=C(CCn1c(=S)[nH]c2cc3c(cc2c1=O)OCO3)NCc1ccc(Cl)cc1 | 18.2%
O=C(CSc1nnc(Cc2ccccc2)o1)NC1CCCCC1 | 3.71%
CCOC(=O)Cn1nnc(-c2cc(OC)c(OC)c(OC)c2)n1 | 17.2%
CCn1c(=O)n(CC(=O)Nc2ccc(F)cc2)c(=O)c2ccccc21 | 9.81%
O=C(O)/C=C/S(=O)(=O)c1ccc2ccccc2c1 | 9.53%
CCOc1ccc(N(CC(=O)Nc2ccccc2C)S(=O)(=O)c2c(C)[nH]c(=O)[nH]c2=O)cc1 | 10.7%
Cl.O.Oc1ccc2c3c1O[C@H]1c4[nH]c5ccccc5c4C[C@@]4(O)C(C2)N(CC2CC2)CC[C@]314 | -16.4%
CCN(CC)CCN1CCn2c3c(c4cc(C)ccc42)CCCC31.Cl (stereo not drawn) | -49.8%
Cc1nnsc1-c1onc(C)c1C(=O)O/N=C/c1ccc(Cl)cc1 | 10.8%
CCCOc1cccc(/C=N/NC(=O)c2csc(C)c2C)c1 | 10.5%
O=C(NCc1ccon1)c1ccc(OC2CCN(CCc3ccccc3)CC2)cc1 | -26%
CC(C)(C)NC(=O)CSc1nc(O)cc(=O)n1-c1ccccc1 | 6.42%
CCc1nnc(NC(=O)CCC(=O)NC2CC2)s1 | 7.3%
COc1ccc(C(=O)Nc2ccc3c(c2)OCCO3)cc1S(=O)(=O)N1CCOCC1 | 11%
Brc1cnc(N2CCCC2)nc1N1CCOCC1 | -0.102%
COc1cccc(CNC2CCCc3ccccc32)c1OC (stereo not drawn) | 11.5%
O=C(NCc1ccccc1)C12CN(Cc3ccccc3)CC1C(c1cccc([N+](=O)[O-])c1)=NO2 (stereo not drawn) | 9.37%
